Assay results from PubChem BioAssay AID1159614 (National Center for Advancing Translational Sciences (NCATS), 2016).
About 65 (0.1%) of roughly 45,000 compounds were called active. The call rests on the fitted dose curve; in most records, active means well fitted activation curve with a large enough effect; inconclusive means small, poorly fitted or top-dose-only effect; inactive means no such curve, though single readings can be large or run the other way. The list shows a part of the results.

biological target: Galactocerebrosidase (Homo sapiens) (UniProt P54803); assay: A Novel Cell-Based Assay to Identify Small Molecules for B -Galactocerebrosidase; details: 145M-Twi-hGALC-G270D cells (Twitcher mouse brain line with human GALC G270D), HMU-beta-Gal fluorescence, 48 h; series mostly up to 57.5 µM; activation: at the top concentration; further: 0% is about no effect; nearly all actives have a fitted effect of over 65% in size
Chain of UniProt P54803 (P54803 whole entry, looked up): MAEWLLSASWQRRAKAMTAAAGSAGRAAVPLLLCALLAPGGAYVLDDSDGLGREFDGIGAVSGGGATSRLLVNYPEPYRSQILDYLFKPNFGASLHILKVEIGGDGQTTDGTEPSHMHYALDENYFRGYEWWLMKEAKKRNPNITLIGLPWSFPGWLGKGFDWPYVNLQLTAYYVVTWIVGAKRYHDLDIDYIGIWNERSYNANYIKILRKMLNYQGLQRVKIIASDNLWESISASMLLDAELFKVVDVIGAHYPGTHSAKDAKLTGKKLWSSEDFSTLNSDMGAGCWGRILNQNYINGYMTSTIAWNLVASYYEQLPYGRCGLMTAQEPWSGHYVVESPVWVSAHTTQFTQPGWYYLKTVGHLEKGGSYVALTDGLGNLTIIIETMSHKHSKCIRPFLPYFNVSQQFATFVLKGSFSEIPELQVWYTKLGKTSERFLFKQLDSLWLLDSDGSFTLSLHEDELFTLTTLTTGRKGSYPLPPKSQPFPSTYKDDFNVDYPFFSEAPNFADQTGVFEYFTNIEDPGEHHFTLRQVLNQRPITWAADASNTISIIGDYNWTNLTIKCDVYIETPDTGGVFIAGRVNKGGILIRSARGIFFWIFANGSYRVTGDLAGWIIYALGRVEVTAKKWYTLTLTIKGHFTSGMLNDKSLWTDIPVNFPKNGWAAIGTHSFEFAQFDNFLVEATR
Outline: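 Mutant human GALC (G270D), stably expressed in a Twitcher mouse brain cell line lacking endogenous GALC, is measured in live-treated cells via 6-hexadecanoylamino-4-methylumbelliferyl-β-galactoside hydrolysis (0.1 mM final, pH 5.2) with fluorescent detection.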

activation, inactive:
Cc1c(C(=O)N2CCOCC2)oc2c1-c1nn(CC(=O)NCc3cccc(F)c3)cc1CC2 -12.4%, COC(=O)c1ccc(Cl)cc1NC(=O)NCCc1c(C)nn(C)c1C -6.4%, COc1ccccc1CNC(=O)Cn1c(=O)nc(-c2ccccc2F)c2cc(Cl)ccc21 -20.6%, Cc1ccc(-n2c(=O)c3cccnc3n2CC(=O)Nc2cc(C)cc(C)c2)cc1 -16.3%, COc1ccc(OC)c(C(=O)CC2(O)C(=O)N(Cc3ccccc3C)c3ccccc32)c1 (stereo not given) -10.7%, Cc1ccc(/C=C(\C#N)c2nc(-c3ccc(-c4ccccc4)cc3)cs2)cc1 -7.4%, Cc1ccc(S(=O)(=O)C2(C(=O)Nc3ccc(Cl)c(C(F)(F)F)c3)CC2)cc1 -5.46%, CCOC(=O)c1cccc(NC(=O)CCS(=O)(=O)c2ccc3c(c2)CC(=O)N3C)c1 -1.7%, Cc1ccc(Cl)cc1N1CCN(C(=O)C2CCC(CNS(=O)(=O)c3cccs3)CC2)CC1 (stereo not given) -3.9%, CCOC(=O)c1c(C)[nH]c(C)c1S(=O)(=O)N1CCC(C(=O)Nc2cc(C)ccn2)CC1 -11.1%, Cc1cccc(N2CCN(C(=O)CS(=O)(=O)c3cccc4nsnc34)CC2)c1C -8.43%, Cc1ccc(CNc2ccc(-c3nc(-c4ccncc4)no3)cc2[N+](=O)[O-])cc1 1.79%, COc1ccc(-n2ccnc2SCC(=O)Nc2ccc3c(c2)OCO3)cc1 -3.63%, CC(C)(C)C1CCc2c(sc(NC(=O)Cn3nnc(-c4ccccc4Cl)n3)c2C#N)C1 (stereo not given) -17.9%, CCc1ccccc1N(CC)C(=O)c1c(C)oc2ncn(C)c(=O)c12 -17%, Cc1ccc(-c2nc(S(=O)(=O)c3ccccc3)c(N3CCN(c4ccccc4)CC3)o2)cc1 -9.03%, CCc1ccccc1NS(=O)(=O)c1ccc2[nH]cc(C(=O)N(CC(C)C)CC(C)C)c(=O)c2c1 -0.668%, Cc1ccc2nc(COc3ccccc3NC(=O)COc3ccc(F)cc3)cc(=O)n2c1 -6.14%, CCc1ccc2nc(N(CCN(CC)CC)C(=O)c3cccs3)sc2c1 -14.8%, O=C(Nc1ccccc1C(=O)OCc1cc(=O)n2c3c(sc2n1)CCCC3)c1ccc(F)cc1 -12.5%, COc1ccc(NC(=O)C2CCN(S(=O)(=O)c3ccc4c(c3)CCCC(=O)N4)CC2)cc1OC -1.51%, Cc1cccc(C(C)C)c1NC(=O)Cn1c(=O)oc2cc(S(=O)(=O)N3CCCC3)ccc21 -13.2%, COc1ccc(-c2nc(SCC(=O)Nc3ccc4c(c3)OCCO4)c(-c3ccc(F)cc3)[nH]2)cc1 -11%, COc1cccc(C(=O)Nc2nc3nc(-c4ccccc4)cc(=O)n3[nH]2)c1 -23.2%, CC(=O)c1ccc(NC(=O)CN2C(=O)CN(C)C(=O)c3ccccc32)cc1 -12.5%, COc1ccc(-c2oc3ncn4nc(COc5cccc(C)c5C)nc4c3c2-c2ccc(OC)cc2)cc1 -15.9%, COc1cc(Nc2nc(SCc3ccc(Cl)cc3)nc3ccccc23)cc(OC)c1 -6.9%, COc1cccc(CNC(=O)C2=C(C)C(=O)OC23CCN(C(C)=O)CC3)c1OC -4.55%, O=C1c2oc3ccccc3c(=O)c2C(c2cccc(O)c2)N1c1nncs1 (stereo not given) 2.18%, O=C(Cn1c(=O)nc(-c2ccccc2)c2ccccc21)NCCc1ccccc1 -8.34%, CCOC(=O)c1c(-c2ccc(C)cc2)csc1NC(=O)c1cc(=O)c2cc(C)ccc2o1 5.27%, O=C(COCc1cc(-c2cccs2)on1)N1CCN(c2ccccc2)CC1 -19.5%, COc1cc(C(=O)Nc2ccc(NC(=O)c3ccc(C(C)(C)C)cc3)cc2)cc(OC)c1OC -23.8%, CCC(C(=O)NCc1cc(OC)ccc1OC)n1nc(C)c2sc3ccccc3c2c1=O (stereo not given) -1.06%, CN(C)c1cccc(C(=O)N2CCC(c3c[nH]c4ccccc34)(c3c[nH]c4ccccc34)CC2)c1 0.386%, Cc1cccc(CNC(=O)c2ccc(N3Cc4ccccc4Oc4ncccc43)s2)c1 -19%, COc1cccc(C(=O)N2CCC(C(=O)Nc3cccc(Cl)c3)CC2)c1 2.35%, COc1ccc(OC)c(CNC(=O)C2CCCN(c3ncnc4onc(-c5ccc(F)cc5)c34)C2)c1 (stereo not given) -11.6%, Fc1ccc(NCc2nnc3n2CCCCC3)cc1Cl -14.8%, COc1ccccc1C(=O)Nc1ccc2nc(SCCOc3ccccc3C)sc2c1 -18.3%, CC(C)c1ccc(N2C(=O)CSC23C(=O)N(Cc2cccc(F)c2)c2ccccc23)cc1 (stereo not given) -36.8%, COCc1cc(C)nc2c1C(=O)NC(c1ccc(C)cc1)N2Cc1ccccc1 (stereo not given) -8.19%, O=C(CSc1cn(CC(=O)N2CCCCC2)c2ccccc12)NCc1ccccc1 0.529%, CCOc1ccc(-c2nnc(SCC(=O)NCc3ccccc3Cl)o2)cc1 -7.43%, CCCN1C(=O)c2[nH]nc(-c3ccccc3)c2C1c1cccc(O)c1 (stereo not given) -6.52%, CCN(CC)CCNC(=O)C(=O)NCC(c1ccc2c(c1)OCO2)N1CCOCC1 (stereo not given) -1.85%, CCOc1ccc(S(=O)(=O)N2CCN(c3cccc(C(F)(F)F)c3)CC2)cc1OCC -23.3%, COc1ccc2c(c1)CCc1sc(NC(=O)c3cccc(Br)c3)nc1-2 -12.9%, COc1ccccc1NC(=O)CSC1=Nc2ccccc2C2=NC(Cc3ccccc3)C(=O)N12 (stereo not given) -7.04%, CCOc1ccc(CNC(=O)C2CCN(c3nnc(-n4c(C)ccc4C)s3)CC2)cc1 -40.5%, Cc1ccc(NC(=O)c2oc3ccccc3c2NC(=O)Cc2ccccc2)cc1 -12.3%, Cc1ccc(-c2onc(C)c2C)cc1S(=O)(=O)NCc1ccc(N(C)C)cc1 -14.6%, CCc1ccc(NC(=O)Cn2c(=O)n(CCCCC(=O)NCc3ccccc3Cl)c(=O)c3ccccc32)cc1 -11.1%, CCc1nc2c(cnn2-c2ccc(C)cc2)c(=O)n1Cc1ccccc1 -4.03%, Cc1cc(C)c(S(=O)(=O)NCC(c2ccco2)N2CCOCC2)c(C)c1 (stereo not given) -8.89%, CCOC(=O)N1CCc2c(sc3c2c(=O)n(Cc2ccccc2)c(=O)n3Cc2cccc(C)c2)C1 -4.2%, Cc1ccccc1Nc1nn2c(=O)c3ccc(C(=O)NCc4ccccc4)cc3nc2s1 -7.8%, CCn1c(=O)cc(OCC(=O)NCc2ccccc2OC)c2ccccc21 -14.7%, COc1ccc(NC(=O)c2cc(C)nc3c2c(C)nn3-c2ccc(C)cc2)cc1OC -9.2%, COc1ccccc1-c1nnc(C2CCN(C(=O)c3cccc(C)c3)CC2)o1 -14.8%
